Test results: the supplement of paper PMC3334620
In all, about 33,000 sequences were measured (“E-score (-0.5 to 0.5)”: median about -0.036, highest 2% from about 0.37 on). The list shows a part of the results.

What follows are sequences tested against T1, Yer064c (UniProt P40041) (assay: PBM E-score (8-mer binding enrichment) (E-score (-0.5 to 0.5)); higher = stronger / more preferred TF binding; most listed sequences are background and not binding sites). Details: protein concentration: 200 nM; construct: GST-full length.
T1 sequence: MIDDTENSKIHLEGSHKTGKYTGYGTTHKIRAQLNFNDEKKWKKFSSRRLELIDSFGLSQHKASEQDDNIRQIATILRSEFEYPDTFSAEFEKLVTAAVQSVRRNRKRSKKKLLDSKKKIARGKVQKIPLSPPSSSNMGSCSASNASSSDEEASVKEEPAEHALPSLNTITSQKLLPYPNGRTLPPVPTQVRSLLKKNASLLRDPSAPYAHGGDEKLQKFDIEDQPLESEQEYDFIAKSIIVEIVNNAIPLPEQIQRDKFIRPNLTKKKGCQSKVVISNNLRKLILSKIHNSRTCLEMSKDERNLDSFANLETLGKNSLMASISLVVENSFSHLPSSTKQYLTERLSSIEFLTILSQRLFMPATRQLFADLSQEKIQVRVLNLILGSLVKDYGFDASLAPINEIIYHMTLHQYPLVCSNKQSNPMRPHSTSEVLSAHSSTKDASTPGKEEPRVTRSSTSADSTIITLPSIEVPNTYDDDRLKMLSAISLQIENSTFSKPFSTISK
Method in brief: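 E-scores (a modified Wilcoxon-Mann-Whitney statistic) were assigned by the Universal PBM Analysis Suite to every ungapped eight-base word pooled with its reverse complement. The input came from universal all-10-mer Agilent arrays made double-stranded by primer extension and probed with GST-tagged yeast transcription factors at about 100-200 nM. Fluorescent anti-GST detected bound protein, and masliner normalised the scans.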

In order of rising “PBM E-score” value:
1. CCCCCAGA  -0.413
2. ACGTCCTG  -0.348
3. CTGGGATC  -0.29
4. CCCTGTGC  -0.285
5. GTATGCCA  -0.283
6. AAGGGGCA  -0.281
7. CGCTGGCC  -0.279
8. AGGCCAGC  -0.279
9. AGACAAGC  -0.272
10. AAACCGTT  -0.267
11. CCTGTCCA  -0.253
12. AGTTGCGC  -0.246
13. GAGCCTGC  -0.24
14. GATAACGC  -0.24
15. CCCTTTCC  -0.239
16. GCACAACC  -0.239
17. ACCCCCCC  -0.237
18. AGGCGTTC  -0.237
19. ACCTTGCA  -0.235
20. GGGGGTAA  -0.23
21. GGGCAAAC  -0.227
22. AGCAGACG  -0.223
23. CGATGCCC  -0.221
24. GACGCCAA  -0.217
25. TGATACCA  -0.215
26. GCCCGGAA  -0.21
27. CCCCTGCC  -0.204
28. AACAGGGT  -0.202
29. GAGGCATC  -0.198
30. CCAAGTCC  -0.198
31. ACAGGGTA  -0.193
32. ACTTTCCC  -0.192
33. GATGAGGA  -0.19
34. AAGGCGCC  -0.187
35. CGACCCAG  -0.182
36. GCGTTGGA  -0.18
37. CAGTGTGC  -0.179
38. GAAACGCC  -0.172
39. ATGGCCAG  -0.17
40. CCAGACGG  -0.17
41. AAACGAGC  -0.17
42. GGGGACAA  -0.164
43. TGCAGCAA  -0.158
44. CCGCTATA  -0.157
45. ACCCTGCC  -0.154
46. TCGATGCA  -0.151
47. AAACGCTC  -0.148
48. CTCGGCAC  -0.148
49. GAGAGATC  -0.146
50. ACCCTACT  -0.145
51. TGCCGAAA  -0.144
52. CCTCAAGA  -0.142
53. CCGGGGGA  -0.14
54. CCAACATC  -0.138
55. ACACTCCG  -0.136
56. AGCCGGCC  -0.134
57. CGATAACG  -0.134
58. ACCAGCGG  -0.133
59. ATTGCGTC  -0.128
60. ACAAGGCT  -0.128
61. ACCCCGGC  -0.128
62. CGCTGCCA  -0.121
63. AGTTGGTG  -0.119
64. CTTCTCAC  -0.119
65. TCCGTAAA  -0.117
66. CCAGCCTC  -0.117
67. CAGAATAG  -0.116
68. GGCTCGCA  -0.116
69. CCACCGCG  -0.114
70. CTTGTACA  -0.114
71. ATAGACAA  -0.107
72. GGGGTTTA  -0.106
73. AAACGGAC  -0.106
74. AGCCGGCG  -0.103
75. ATTGGAGA  -0.103
76. CAGGCCGA  -0.102
77. TAGGTACA  -0.0989
78. AAACCGCT  -0.0915
79. CACGGTCA  -0.0911
80. ATCGCTGC  -0.0877
81. CGTTCTGC  -0.0876
82. CGTAATTC  -0.0844
83. ACGTGTGG  -0.0723
84. CAGTTGCC  -0.0655
85. CCTCATAA  -0.0646
86. AGCGCTCG  -0.0635
87. CCAAGCTA  -0.0602
88. CCCTCGGA  -0.0577
89. CCTGCGGA  -0.0576
90. GTAGGCGA  -0.0574
91. AAGGCTAC  -0.0556
92. CGGTGCGA  -0.0551
93. CTACACCA  -0.052
94. AGTTTCGG  -0.0508
95. AGGTAACT  -0.0493
96. CGGGAACA  -0.049
97. AAGACCAC  -0.0481
98. AACGACAG  -0.0481
99. ACCAAAAT  -0.0446
100. CTAACATC  -0.0438
101. GTAGAGCA  -0.0431
102. ATCGCCCA  -0.0429
103. AACGCGGT  -0.0415
104. CGTAGCAC  -0.0396
105. AGGAATAA  -0.0382
106. AATTGGAA  -0.036
107. GGGGGGGA  -0.0347
108. ATAAGATA  -0.0333
109. ACAAATCT  -0.0329
110. CCTGAGCC  -0.0314
111. ACCAAGCC  -0.0298
112. AAGCTTGA  -0.0274
113. ACTTGCAG  -0.0251
114. CCAGAGAG  -0.025
115. AGGCTATC  -0.0226
116. AACTACTG  -0.0219
117. GCCCAAAC  -0.0218
118. ACCTACTC  -0.0206
119. AAAGAGAA  -0.0202
120. CACCCAAC  -0.0191
121. GTAGCCAA  -0.0169
122. CTCAAGTA  -0.0168
123. AGAGAAGA  -0.0164
124. GCGGCGAC  -0.0157
125. GTATGAAA  -0.0135
126. AGCGAAAA  -0.0104
127. ACGTGGGA  -0.00359
128. ATGAGCCC  -0.00355
129. CCACCGGA  -0.00039
130. CCCAGAAA  0.00184
131. ACGTTTAT  0.00313
132. ATTCGAGC  0.00455
133. CTGATCTC  0.00456
134. CCGATTTA  0.00468
135. CCGTGATC  0.00687
136. CCTCGCAC  0.00701
137. AGGATGGC  0.014
138. CTTAACCC  0.0143
139. ATGCAATG  0.0179
140. ACTCTGGG  0.0199
141. CAGAGTGA  0.0239
142. TACGTCGA  0.0248
143. CCACGATC  0.0277
144. AATTCGAT  0.0314
145. AAGTAACG  0.0322
146. GAAATATC  0.0323
147. ATTATGGA  0.0375
148. AGAGGTTA  0.0375
149. CTGACGTC  0.0382
150. AATTGGGT  0.0392
151. GAATACGA  0.0413
152. CAAATCTC  0.0434
153. ACCAACAA  0.0475
154. ACCTAAGA  0.0483
155. AGCAGCTG  0.0489
156. ACATGGTC  0.0496
157. CCAGTGAG  0.0497
158. ACAACGAT  0.0529
159. ATAAGCTA  0.0582
160. ATACCATG  0.061
161. AGTATAAG  0.062
162. CAACATCA  0.062
163. TAGCCGGA  0.0623
164. CATTATAC  0.0626
165. AAATAGAG  0.0644
166. ACACGTCT  0.0645
167. ATTCACCA  0.0678
168. AAATCGAC  0.0698
169. CAGATACA  0.0747
170. AATAGGAA  0.0751
171. CACGAGTA  0.0787
172. GAAGAGTA  0.0801
173. AGACAGGA  0.0826
174. CTTCCTTA  0.0831
175. TACTCCGA  0.0904
176. CGAGAGTA  0.0908
177. CTCATTCA  0.0925
178. AATCTAAG  0.0952
179. ATGGATAG  0.1
180. GATGTTGA  0.102
181. GGATTGAA  0.102
182. AACTCGAT  0.103
183. ACACGACA  0.106
184. AGTTGTGG  0.108
185. CAATCTTA  0.11
186. GTCTTTGA  0.116
187. TTGAAAAA  0.117
188. ATGGATTA  0.121
189. TATAGACA  0.121
190. AACTTATG  0.124
191. TCTTGGCA  0.129
192. ACAACCAC  0.131
193. CATGCATC  0.133
194. CGCCAGTC  0.135
195. ACGACGAA  0.139
196. CTTGTTTA  0.141
197. ACAACTCA  0.143
198. AAATGGGT  0.144
199. CTTCGGAC  0.145
200. TAAAGCCA  0.149
201. ATCATTGC  0.154
202. CTTAAGAA  0.155
203. CAAGCTGA  0.161
204. TCTGACCA  0.162
205. ACATGGCT  0.163
206. AGTTTAAT  0.163
207. CTCATTGA  0.167
208. AATCGTCC  0.171
209. CGACAGTC  0.18
210. TCATGTCA  0.186
211. TCAACGAA  0.193
212. ACTCTACT  0.202
213. AGTATGTC  0.205
214. AAAGTCTT  0.217
215. TCACATGA  0.269
216. AAGTTAGT  0.306
217. GTACTCAA  0.314
218. AAGTCAGA  0.341
219. AATCACCG  0.42
